The source of these data is the supplement of paper PMC11876631.

This data set addresses Escherichia coli (laboratory strain). Kind of data set: barcode share on antibiotic plates over drug-free plates; higher = less susceptible. The protocol:
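A pool of E. coli strains, each edited to carry one amino-acid change in an essential protein, was grown for 48 h on minimal glucose agar with or without antibiotic; strain barcodes were sequenced; mean of two replicates.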

The mark [1] stands for this setting: antibiotic: carbenicillin, 2× MIC (3.1 µg/mL).
The mark [2] stands for this setting: antibiotic: gentamicin, 2× MIC (MIC 0.45 µg/mL).

Positions count from the first letter of the chain named. Numbers in names are those of the source. ± gives the standard deviation of the averaged measurements. Laboratory Escherichia coli strains with one amino-acid change in an essential protein, pooled on minimal glucose agar with carbenicillin or gentamicin at twice the control MIC (plus kanamycin and chloramphenicol for the plasmids), 48 h. Fold change of barcode share against drug-free plates; higher = less susceptible. Active = above 20 in both replicates (the paper's putatively resistant). '<' = one read or none on drug, '>' = one read or none on a drug-free plate. Shares are relative, so most strains fall below 1 when a few take over. Listed are strains with at least 15 reads on both drug-free plates, and hits; most hits rest on fewer reference reads. Replicate rank correlation about 0.5. Edits are read from barcodes. Where only a bound is given, the exact number is not on record here.

B1: nrdA L172Q (protein)
chain: MNQNLLVTKRDGSTERINLDKIHRVLDWAAEGLHNVSISQVELRSHIQFYDGIKTSDIHETIIKAAADLISRDAPDYQYLAARLAIFHLRKKAYGQFEPPALYDHVVKMVEMGKYDNHLLEDYTEEEFKQMDTFIDHDRDMTFSYAAVKQLEGKYLVQNRVTGEIYESAQFQYILVAACLFSNYPRETRLQYVKRFYDAVSTFKISLPTPIMSGVRTPTRQFSSCVLIECGDSLDSINATSSAIVKYVSQRAGIGINAGRIRALGSPIRGGEAFHTGCIPFYKHFQTAVKSCSQGGVRGGAATLFYPMWHLEVESLLVLKNNRGVEGNRVRHMDYGVQINKLMYTRLLKGEDITLFSPSDVPGLYDAFFADQEEFERLYTKYEKDDSIRKQRVKAVELFSLMMQERASTGRIYIQNVDHCNTHSPFDPAIAPVRQSNLCLEIALPTKPLNDVNDENGEIALCTLSAFNLGAINNLDELEELAILAVRALDALLDYQDYPIPAAKRGAMGRRTLGIGVINFAYYLAKHGKRYSDGSANNLTHKTFEAIQYYLLKASNELAKEQGACPWFNETTYAKGILPIDTYKKDLDTIANEPLHYDWEALRESIKTHGLRNSTLSALMPSETSSQISNATNGIEPPRGYVSIKASKDGILRQVVPDYEHLHDAYELLWEMPGNDGYLQLVGIMQKFIDQSISANTNYDPSRFPSGKVPMQQLLKDLLTAYKFGVKTLYYQNTRDGAEDAQDDLVPSIQDDGCESGACKI
Turning to B1, the “fold change of barcode share” value under setting [1] came out at 0.334 ± 0.21.

B2: nrdA L227Q (protein)
chain: B1 chain with Q172L, L227Q
Consider B2, for which the “fold change of barcode share” value is 0.142 ± 0.042 under setting [1] and < 0.00584 under setting [2].

B3: nrdA L227A (protein)
chain: B1 chain with Q172L, L227A
For B3, the “fold change of barcode share” value under setting [1] was found to be 0.514 ± 0.35 and the “fold change of barcode share” value under setting [2] turned out to be 0.0114 ± 0.0062.

B4: nrdA L180Q (protein)
chain: B1 chain with Q172L, L180Q
As for B4, the “fold change of barcode share” value reads like this: under setting [1], 0.0887 ± 0.00024; under setting [2], 0.0144 ± 0.011.

B5: nrdA L180W (protein)
chain: B1 chain with Q172L, L180W
With B5, the “fold change of barcode share” value by setting is: under setting [1], 0.23 ± 0.037; under setting [2], < 0.00575.

B6: nrdA L180D (protein)
chain: B1 chain with Q172L, L180D
Consider B6, for which the “fold change of barcode share” value under setting [1] was found to be 0.272 ± 0.15.

B7: nrdA L180P (protein)
chain: B1 chain with Q172L, L180P
B7: under setting [1], the “fold change of barcode share” value stood at 0.176 ± 0.13.
